Here are results for 21 variants from the RNAGym collection of RNA variant scans (doi:10.7554/elife.90254).

The labels stand for the following.
B1: OR4K15 (parent)
chain: GUUAACGGUCAUAGGCCAUGGAAACUAGGAGCACCAUUUCGCUGCCAGUGAAGAAAUGAACAAAGAAAAUCUGGGCCAGGCAGGCAUCAAAAGAAAUAGUCUUGCGCUCAACCAGAAAGUCUGUAAUCAUUUUAAGGGUA

The source gives no read counts; variants with many changes may rest on few reads.

This series covers variants of B1. Nature of the series: self-cleavage, relative activity (ratio to wild type); higher = more cleavage; in vitro, sequencing; the parent is a self-cleaving ribozyme.
As for GUUAACGGUCAUGGGCCAUGGAAACUAGGAGCACCAUUUCGCUGCCAGUGAAGAAAUGAACAAAGAAAAUCUGGGCCAGGCAGGCAUCAAAAGUAUUAGUCUUGCGCUCAACCAGAAAGUCUGUAAUCAUUUUAAGGGUA, the self-cleavage came to 0.36.

On to GUUAACGGUCAUUGGCCAUGGAAACUAGGAGCACCAUUUCGCUGCCUGUGAAGAAAUGAACAAAGAAAAUCUGGGCCAGGCAGGCCUCAAAAGAAAUAGUCUUGCGCCCAACCAGAAAGUCUGUAAACAUUUUAAGGGUA, for which the self-cleavage was found to be 0. As for GUUAACGGUCAUGGGCCAUGGAAACUAGGAGCACCAUUUCGCUGCCAGUGAAGAAAUGAACAAAGAAAAUCUGGGCCAGGCAGGCACCAAAAGAAAUAGUCUUGCGCUCAACCAGAAAGUCUGUGAUCAUUUUAAGGGUA, the self-cleavage is 0.61. The result for GUUAACGGUCAUGGGCCAUGGAAACUAGGAGCACCACUUCGCUGCCAGUGAAGAAAUGAACAAAGAAAAUCUGGGCCAGGCAGGCAUCAAAAGAAAUAGUCUUGCGCUCAACCAGAAAGUCUGUAACCAUUUUAAGGGUA reads 1.02; that for GUUAACGGUCAUUGGCCAUGGUAACUAGGAGCACCAUUUCGCUGCCAGUGAAGAAAUGAACAAAGAAAAUCUGGGCCAGGCAGGCAUCAAAAGAAAUAGUCUUGCGCCCAACCAGAAAGUCUGCAAUCAUUUUAAGGGUA, 0.02. Regarding GUUAACGGUCAUGGCCCAUGGAAACUAGGAGCACCAUUUCGCAGCCAGUGAAGAAAUGAACAAAGAAGAUCUGGGCCAGGCUGGCAUCAAAAGAAAUAGUCUUGCGCUCAACCAGAAAGUCUGUAAUCAUUUUAAGGGUA, the self-cleavage amounted to 0.22. For GUUAACGGUCAUGGGUCAUGGAGACCAGGAGCACCAUCUCGCUGCCAGUGAAGAAAUGAACAAAGAAAAUCUGGGCCAGGCAGGCAUCAGAAGAAUUAGUCUUGCGCUCGACCAGAAAGUCUGUAAUCAUUUCAAGGGUA, the self-cleavage stood at 0.04. For GUUAACGGUCAUUGGCCAUGGAAACUAGGGGCACCAUUUCGCUGCCAGUGAAGAAAUGAACAAAGAAAAUCUGGGCCAGGCGGGCAUCGGAAGAGAUAGUCUUGCGCUCGACCAGAAAGUCUGUAAUCAUUUUAAGGGUA, the self-cleavage stood at 0.16. Take GUUAACGGUCAUGGGCCAUGGAAACUAGGAGCACCAUUACGCUGCCAGUGAAGAAAUGAACAAAGAAAAUCUGGGCCUGGCAGGCGUCAAAAGAAAUAGUCUUGCGCUCAACCAGAAGGUCUGUAAUCAUUUUAAGGGUA: the self-cleavage turned out to be 0.3. Turning to GUUAACGGUCAUUGGCCAUGGAAACUAGGAGCGCCAUUUCGCUGCCAGUGAAGAAAUGAACAAAGAAAAUCUGGGCCAGGCAGGCAUCAAAAGGAAUAGUCUUGCGCUCAACCAGAAAGUCUGUAAUCAUUUUAAGGGUA, the self-cleavage came out at 2.23. The result for GUUAACGGUCAUGGGCCAUGGAAACUAGGAGCACCAUUUCGCUGCCAGUGAAGAAAUGAACAAAGAAAAUCUGGGCCAGGCAGGCAUCAAAAGAAAUAGUCUCGCGCUCAACCAGAAAGUCUGAAAUCAUUUUAAGGGUA reads 0.42. Turning to GUUAACGGUCAUGGGCCAUGGAAACUAGGAGCACCAUUUCGCUGCCAGUGAAGAAAUGAACAAAGAAAAUCUGGGCCAGGCAGGCAUCAGAAGAAAUAGUCUUGCGCUCGACCAGAAAGUCUGUAAUCAUUUUAAGGGUA, the self-cleavage turned out to be 0.06. Regarding GUUAACGGUCAUUGGCCAUGGAAACUAGGGGCACCAUUUCGCUGCCAGUGAAGAAAUGAACAAAGAAAAUCUGGGCCAGGCAGGCAUCAAAAGAAAUAGUCUUGCGCUCAACCAGAAAGUCUGUAGUCAUUUUAAGGGUA, the self-cleavage came out at 0.74. In the case of GUUAACGGUCAUGGGCCAUGGAAACUAGGAGCACCAUUUCGCCGCCAGUGAAGAAAUGAACAAAGAAAAUCUGGGCCUGGCAGGCAUCAAAAGAAAUAGUCUUGCGCUCAACCAGAAAGUCUGUAAUCAUUUUAAGGGUA, the self-cleavage turned out to be 0.59.

Consider GUUAACGGUCAUUGGCCAUGGAAUCUAGGAGCACCAUUUCGCUGCCAGUGAAGAAAUGAACAAAGAAAAUUUGGGCCAGGCAGGCAUCAAAAGAAAUAGUCUUGCGCUCAACCAGAAAGUCUGUAAUCAUUUUAAGGGUA, for which the self-cleavage came to 0.15. To GUUAACGGUCAUGGGCCAUGGAAACUAGGAGCACCAUUUCGCUGCUAGUGAAGAAAUGAACAAAGAAAAUCUGGGCCAGGCAGGCAUCAAAAGAAAUAGUCUUGCGCUCAGCCAGAAAGUCUGUAAUCAUUUUAAGGGUG belongs 0.06; to GUUAACGGUCAUGGGCCAUGGAAACUAGGAGCACCAUUUCGCCGCCAGCGAAGAAAUGAACAAAGAAAAUCUGGGCCAGGCAGGCAUCAAGAGAAAUAGUCUUGCGCUCAACCAGAAAGUCUGUAAUCAUUUUAAGGGUA, 0.31.

Turning to GUUAACGGUCAUGGGCCAUGGAAACUAGGAGCACCAUCUCGCUGCCAGUGAGGAAAUGAACAAAGAAAAUCUGGGCCAGGCAGGCAUCAAAGGAAAUAGUCUUGCGCUCAACCAGAAAGUCUGUAAUCAUUUUAAGGGUA, the self-cleavage was found to be 1.02. For the variant GUUAACGGUCAUUGGCCAUGGAAACUAGGAGCACCAUUUCGCUGCCAGUGAAGGAAUGAACAAGGAAAAUCUGGGCCAUGCGGGCAUCAAAAGAAAUAGUCUUGCGCUCAACCAGAAAGUCUGUAAUCAUUUUAAGGGUA, the self-cleavage was 0.18. GUUAACGGUCAUGGGGCAUGGAAACUAGGAGCACCAUUUCGCUGCCAGAGAAGAAAUGAACAAAGAAAAUCUGGGCCAGGCAGGCAUCAAAAGAAAUAGUCUUGCGUCCAACCAGAAAGUCUGUAAUCAUUUUAAGGGUA: the self-cleavage stood at 0.13. For the variant GUUAACGGUCAUGGGCCAUGGAAACCAGGAGCACCAUUUCGCUGCCAGUGAAGAAAUGAGCAAAGAAAAUCUGGGCCAGGCAGGCAUCCAAAGAAAUAGUCUUGCGCCCAACCAGAUAGUCUGUAAUCAUUUUAAGGGUA, the self-cleavage is 0.01.
